From patent US8343475B2, “Small cationic antimicrobial peptides” (priority 2006, dated 2013)
At least one peptide structure holds a part that was inferred or is arguable (an end, a ring closure or a residue). Residues, ends and D or L forms follow the SMILES beside them.

How the values were obtained:
[1] = tested on: MCP-1 release by human PBMC; test: Chemokine induction in PBMC (capture ELISA); type: cell-based; conditions: for Chemokine induction MCP-1: background (204) subtracted; for induction of MCP1: 20 or 100 μg/ml peptide, 24 hours (FIG. 15)
Procedure: FIG. 15. Induction of MCP-1 release by 7.5×10^5 human PBMC in response to treatment with 20 or 100 μg/ml of different peptides for 24 hours.
(§1) Venous blood (20 ml) from healthy volunteers was collected in Vacutainer® collection tubes containing sodium heparin as an anticoagulant (Becton Dickinson, Mississauga, ON) in accordance with UBC ethical approval and guidelines. Blood was diluted 1:1 with complete RPMI 1640 medium and separated by centrifugation over a Ficoll-Paque® Plus (Amersham Biosciences, Piscataway, N.J., USA) density gradient. White blood cells were isolated from the buffy coat, washed twice in RPMI 1640 complete medium, and the number of peripheral blood mononuclear cells (PBMC) was determined by trypan blue exclusion. PBMC (5×10^5) were seeded into 12-well tissue culture dishes (Falcon; Becton Dickinson) at 0.75 to 1×10^6 cells/ml at 37° C. in 5% CO2. The above conditions were chosen to mimic conditions for circulating blood monocytes entering tissues at the site of infection via extravasation.
(§2) Following incubation of the cells under various treatment regimens, the tissue culture supernatants were centrifuged at 1000×g for 5 min, then at 10,000×g for 2 min to obtain cell-free samples. Supernatants were aliquoted and then stored at −20° C. prior to assay for various chemokines by capture ELISA (eBioscience and BioSource International Inc., CA, USA respectively)

[2] = tested on: MCP-3 release by human PBMC; test: Chemokine induction in PBMC (capture ELISA); type: cell-based; conditions: for Chemokine induction MCP-3: background (6) subtracted
Procedure: FIG. 16. Induction of MCP3 release by 7.5×10^5 human PBMC in response to treatment with 20 or 100 μg/ml of different peptides for 24 hours.
as §1, §2

[3] = tested on: CXCL1 (Gro-α) release by human PBMC; test: Chemokine induction in PBMC (capture ELISA); type: cell-based; conditions: for Chemokine induction Gro-α: background (196) subtracted
Procedure: FIG. 17. Induction of CXCL1 (Gro-α) release by 7.5×10^5 human PBMC in response to treatment with 20 or 100 μg/ml of different peptides for 24 hours.
as §1, §2

human PBMC = test: Adjuvant properties: cytokine/chemokine induction by peptides alone and with CpG oligonucleotides and polyphosphazene P6; type: cell-based; conditions: for Cytokines induced: Gro-α / Cytokines induced: IL-8 / Cytokines induced: TNF-α / Cytokines induced: IL-6 / Cytokines induced: MCP-1 / Cytokines induced: MCP-3: human PBMC, background subtracted
Procedure: as §1, §2
(§3) It is well accepted that vaccine immunization is best achieved by co-administration of an adjuvant. The precise mechanism by which these adjuvants work has eluded immunologists but appears to work in part by upregulating elements of innate immunity that smooth the transition to adaptive (antigen-specific) immunity (Bendelac A and R. Medzhitov. 2002. Adjuvants of immunity: Harnessing innate immunity to promote adaptive immunity J. Exp. Med. 195:F19-F23). Within this concept there are several possible avenues by which adjuvants might work including the attraction of immune cells into the site at which a particular antigen is injected, through e.g., upregulation of chemokines, the appropriate activation of cells when they reach that site, which can be caused by local cell or tissue damage releasing endogenous adjuvants or through specific cell activation by the adjuvants, and the compartmentalization of immune responses to the site of immunization (the so-called “depot” effect). […] Therefore we studies the ability of our small host defence peptides to upregulate adjuvant responses in both human PBMC and cord blood mononuclear cells (CBMC) (representing the responses of blood cells from neonates), both alone (Table 10 and 11) and in combination with other proposed adjuvant agents that might work through other mechanisms such as CpG oligodeoxy ribonucleotides (TLR9 agionists that activate cells through interaction with TLR9 and fit into 3 different classes A=molecule 2336, B=10103 and C=2395), and polyphosphazene P6 (which induces a depot effect).

[4] = tested on: cord blood mononuclear cells (CBMC); test: as above; type: cell-based, human; conditions: for Cytokines induced: Gro-α / Cytokines induced: IL-6 / Cytokines induced: IL-8 / Cytokines induced: MCP-1 / Cytokines induced: MCP-3 / Cytokines induced: TNF-α: peptide alone 20 ug/mL, background subtracted
Source text: as §3

[5] = second series (with P6), peptide, P6, CpG each 5 ug/mL, alone or in combination

Row | SMILES | Chemokine induction MCP-1 ([1]; 20 μg/ml peptide) [pg/mL] | Chemokine induction MCP-1 ([1]; 100 μg/ml peptide) [pg/mL] | Chemokine induction MCP-3 ([2]; 20 μg/ml peptide) [pg/mL] | Chemokine induction MCP-3 ([2]; 100 μg/ml peptide) [pg/mL] | Chemokine induction Gro-α ([3]; 20 μg/ml peptide) [pg/mL] | Chemokine induction Gro-α ([3]; 100 μg/ml peptide) [pg/mL] | induction of MCP1 [1] | other results
1 | CC[C@H](C)[C@H](N)C(=O)N[C@@H](Cc1ccccc1)C(=O)N[C@@H](Cc1c[nH]c2ccccc12)C(=O)N[C@@H](CCCNC(=N)N)C(=O)N[C@@H](CCCNC(=N)N)C(=O)N[C@H](C(=O)N[C@H](C(=O)N[C@H](C(=O)N[C@H](C(=O)N[C@@H](CCCCN)C(=O)N[C@@H](CCCCN)C(=O)N[C@@H](Cc1ccccc1)C(N)=O)C(C)C)[C@@H](C)CC)C(C)C)[C@@H](C)CC [compound 1012, IFWRRIVIVKKF] (H-IFWRRIVIVKKF-NH2) | 11475 | 30148 | 1103 | 3303 | 3873 | 7542 |  | Cytokines induced: Gro-α (human PBMC; [5]): 26 pg/mL; Cytokines induced: IL-8 (human PBMC; [5]): 8 pg/mL; Cytokines induced: TNF-α (human PBMC; [5]): -90 pg/mL
2 | CC[C@H](C)[C@H](NC(=O)[C@H](CCCNC(=N)N)NC(=O)[C@H](Cc1c[nH]c2ccccc12)NC(=O)[C@@H](NC(=O)[C@@H](NC(=O)[C@H](CC(C)C)NC(=O)[C@H](Cc1c[nH]c2ccccc12)NC(=O)[C@H](CCCNC(=N)N)NC(=O)[C@H](CCC(N)=O)NC(=O)[C@@H](N)C(C)C)[C@@H](C)CC)C(C)C)C(=O)N[C@@H](CCCNC(=N)N)C(=O)N[C@@H](CCCCN)C(N)=O [compound 1002, VQRWLIVWRIRK] (H-VQRWLIVWRIRK-NH2) | 2472 | 5566 | 13 | 141 | 1032 | 2117 |  | Cytokines induced: Gro-α (human PBMC; [5]): 8 pg/mL; Cytokines induced: IL-8 (human PBMC; [5]): 10 pg/mL; Cytokines induced: TNF-α (human PBMC; [5]): 282 pg/mL
3 | CC[C@H](C)[C@H](NC(=O)[C@H](CCCNC(=N)N)NC(=O)[C@H](CC(C)C)NC(=O)[C@H](CCC(N)=O)NC(=O)[C@@H](N)C(C)C)C(=O)N[C@@H](CCCNC(=N)N)C(=O)N[C@H](C(=O)N[C@@H](C)C(=O)N[C@H](C(=O)N[C@H](C(=O)N[C@@H](CCCNC(=N)N)C(=O)N[C@@H](C)C(N)=O)[C@@H](C)CC)C(C)C)C(C)C [HH2, VQLRIRVAVIRA] (H-VQLRIRVAVIRA-NH2) | 4882 | 10235 | 86 | 283 | 867 | 2693 | induced | synergy with CpG in chemokine induction (human PBMC; PBMC, particularly CpG-B): significant synergy with CpG; Cytokines induced: Gro-α (human PBMC; peptide alone 20 ug/mL): 21 pg/mL; Cytokines induced: IL-6 (human PBMC; peptide alone 20 ug/mL): 23 pg/mL; Cytokines induced: IL-8 (human PBMC; peptide alone 20 ug/mL): 624 pg/mL; Cytokines induced: MCP-1 (human PBMC; peptide alone 20 ug/mL): 54 pg/mL; Cytokines induced: MCP-3 (human PBMC; peptide alone 20 ug/mL): 0 pg/mL; Cytokines induced: TNF-α (human PBMC; peptide alone 20 ug/mL): 0 pg/mL; upregulation of chemokine production (human PBMC; peptide alone): excellent ability to upregulate chemokine production; synergy with CpG in chemokine induction ([4]; particularly CpG-B): significant synergy with CpG; Cytokines induced: Gro-α [4]: 45 pg/mL; Cytokines induced: IL-6 [4]: 11 pg/mL; Cytokines induced: IL-8 [4]: 104 pg/mL; Cytokines induced: MCP-1 [4]: 131 pg/mL; Cytokines induced: MCP-3 [4]: -40 pg/mL; Cytokines induced: TNF-α [4]: -4 pg/mL
4 | CC[C@H](C)[C@H](NC(=O)[C@@H](N)CCCCN)C(=O)N[C@@H](Cc1c[nH]c2ccccc12)C(=O)N[C@H](C(=O)N[C@@H](CCCNC(=N)N)C(=O)N[C@@H](Cc1c[nH]c2ccccc12)C(=O)N[C@@H](CCCCN)C(N)=O)C(C)C [HH17, KIWVRWK-NH2] (H-KIWVRWK-NH2) | 0 | 0 | 37 | 36 | 48 | 132 |  | Cytokines induced: Gro-α (human PBMC; peptide alone 20 ug/mL): 0 pg/mL; Cytokines induced: IL-6 (human PBMC; peptide alone 20 ug/mL): 0 pg/mL; Cytokines induced: IL-8 (human PBMC; peptide alone 20 ug/mL): 146 pg/mL; Cytokines induced: MCP-1 (human PBMC; peptide alone 20 ug/mL): 91 pg/mL; Cytokines induced: MCP-3 (human PBMC; peptide alone 20 ug/mL): 3 pg/mL; Cytokines induced: TNF-α (human PBMC; peptide alone 20 ug/mL): 7 pg/mL; Cytokines induced: Gro-α [4]: 12 pg/mL; Cytokines induced: IL-6 [4]: -2 pg/mL; Cytokines induced: IL-8 [4]: 41 pg/mL; Cytokines induced: MCP-1 [4]: 25 pg/mL; Cytokines induced: MCP-3 [4]: -41 pg/mL; Cytokines induced: TNF-α [4]: -8 pg/mL
5 | CC[C@H](C)[C@H](NC(=O)[C@H](CCCNC(=N)N)NC(=O)[C@H](CC(C)C)NC(=O)[C@H](CCCNC(=N)N)NC(=O)[C@@H](N)C(C)C)C(=O)N[C@@H](CCCNC(=N)N)C(=O)N[C@H](C(=O)N[C@@H](C)C(=O)N[C@H](C(=O)N[C@@H](CCCNC(=N)N)C(=O)N[C@@H](CCCNC(=N)N)C(=O)N[C@@H](C)C(N)=O)C(C)C)C(C)C [HH7, VRLRIRVAVRRA] (H-VRLRIRVAVRRA-NH2) | 894 | 1197 | 11 | 14 | 122 | 152 | induced | 
6 | CC[C@H](C)[C@H](N)C(=O)N[C@@H](CCCNC(=N)N)C(=O)N[C@@H](Cc1c[nH]c2ccccc12)C(=O)N[C@@H](CCCNC(=N)N)C(=O)N[C@H](C(=O)N[C@@H](CCCNC(=N)N)C(=O)N[C@H](C(=O)N[C@@H](Cc1c[nH]c2ccccc12)C(=O)N[C@H](C(=O)N[C@@H](CCCNC(=N)N)C(=O)N[C@@H](CCCNC(=N)N)C(=O)N[C@H](C(N)=O)[C@@H](C)CC)C(C)C)C(C)C)[C@@H](C)CC [compound 1010, IRWRIRVWVRRI] (H-IRWRIRVWVRRI-NH2) | 706 | 5662 | 3 | 604 | 149 | 1384 |  | 
7 | CC[C@H](C)[C@H](N)C(=O)N[C@@H](CCCNC(=N)N)C(=O)N[C@H](C(=O)N[C@@H](CCCNC(=N)N)C(=O)N[C@H](C(=O)N[C@H](C(=O)N[C@@H](Cc1c[nH]c2ccccc12)C(=O)N[C@@H](CCCNC(=N)N)C(=O)N[C@@H](CCCCN)C(N)=O)[C@@H](C)CC)C(C)C)C(C)C [compound 1032, IRVRVIWRK] (H-IRVRVIWRK-NH2) | 896 | 203 | 21 | 3 | 297 | 12 |  | 
8 | CC[C@H](C)[C@H](NC(=O)[C@H](CCCNC(=N)N)NC(=O)[C@H](CC(C)C)NC(=O)[C@H](CCCNC(=N)N)NC(=O)[C@@H](N)CCC(N)=O)C(=O)N[C@@H](CCCNC(=N)N)C(=O)N[C@H](C(=O)N[C@@H](C)C(=O)N[C@H](C(=O)N[C@H](C(=O)N[C@@H](CCCNC(=N)N)C(=O)N[C@@H](C)C(N)=O)[C@@H](C)CC)C(C)C)C(C)C [HH1, QRLRIRVAVIRA] (H-QRLRIRVAVIRA-NH2) | 0 | 2 | 35 | 49 | 45 | 516 | induced | release of MCP3 ([2]; 20 or 100 μg/ml peptide, 24 hours (FIG. 16)): not active; release of Gro-α ([3]; 20 or 100 μg/ml peptide, 24 hours (FIG. 17)): not active
